Legend:
[1] = biological target: human Notch1-Gal4 chimeric receptor on U2OS FlpIn TREx cells (human), P46531; experiment: cell-based or functional assay
[2] = biological target: human Notch2-Gal4 chimeric receptor on U2OS FlpIn TREx cells (human), Q04721; experiment: cell-based or functional assay
human Notch2-Gal4 chimeric receptor on U2OS FlpIn TREx cells (human), Q04721, sequence (Q04721 26-2471, change not shown): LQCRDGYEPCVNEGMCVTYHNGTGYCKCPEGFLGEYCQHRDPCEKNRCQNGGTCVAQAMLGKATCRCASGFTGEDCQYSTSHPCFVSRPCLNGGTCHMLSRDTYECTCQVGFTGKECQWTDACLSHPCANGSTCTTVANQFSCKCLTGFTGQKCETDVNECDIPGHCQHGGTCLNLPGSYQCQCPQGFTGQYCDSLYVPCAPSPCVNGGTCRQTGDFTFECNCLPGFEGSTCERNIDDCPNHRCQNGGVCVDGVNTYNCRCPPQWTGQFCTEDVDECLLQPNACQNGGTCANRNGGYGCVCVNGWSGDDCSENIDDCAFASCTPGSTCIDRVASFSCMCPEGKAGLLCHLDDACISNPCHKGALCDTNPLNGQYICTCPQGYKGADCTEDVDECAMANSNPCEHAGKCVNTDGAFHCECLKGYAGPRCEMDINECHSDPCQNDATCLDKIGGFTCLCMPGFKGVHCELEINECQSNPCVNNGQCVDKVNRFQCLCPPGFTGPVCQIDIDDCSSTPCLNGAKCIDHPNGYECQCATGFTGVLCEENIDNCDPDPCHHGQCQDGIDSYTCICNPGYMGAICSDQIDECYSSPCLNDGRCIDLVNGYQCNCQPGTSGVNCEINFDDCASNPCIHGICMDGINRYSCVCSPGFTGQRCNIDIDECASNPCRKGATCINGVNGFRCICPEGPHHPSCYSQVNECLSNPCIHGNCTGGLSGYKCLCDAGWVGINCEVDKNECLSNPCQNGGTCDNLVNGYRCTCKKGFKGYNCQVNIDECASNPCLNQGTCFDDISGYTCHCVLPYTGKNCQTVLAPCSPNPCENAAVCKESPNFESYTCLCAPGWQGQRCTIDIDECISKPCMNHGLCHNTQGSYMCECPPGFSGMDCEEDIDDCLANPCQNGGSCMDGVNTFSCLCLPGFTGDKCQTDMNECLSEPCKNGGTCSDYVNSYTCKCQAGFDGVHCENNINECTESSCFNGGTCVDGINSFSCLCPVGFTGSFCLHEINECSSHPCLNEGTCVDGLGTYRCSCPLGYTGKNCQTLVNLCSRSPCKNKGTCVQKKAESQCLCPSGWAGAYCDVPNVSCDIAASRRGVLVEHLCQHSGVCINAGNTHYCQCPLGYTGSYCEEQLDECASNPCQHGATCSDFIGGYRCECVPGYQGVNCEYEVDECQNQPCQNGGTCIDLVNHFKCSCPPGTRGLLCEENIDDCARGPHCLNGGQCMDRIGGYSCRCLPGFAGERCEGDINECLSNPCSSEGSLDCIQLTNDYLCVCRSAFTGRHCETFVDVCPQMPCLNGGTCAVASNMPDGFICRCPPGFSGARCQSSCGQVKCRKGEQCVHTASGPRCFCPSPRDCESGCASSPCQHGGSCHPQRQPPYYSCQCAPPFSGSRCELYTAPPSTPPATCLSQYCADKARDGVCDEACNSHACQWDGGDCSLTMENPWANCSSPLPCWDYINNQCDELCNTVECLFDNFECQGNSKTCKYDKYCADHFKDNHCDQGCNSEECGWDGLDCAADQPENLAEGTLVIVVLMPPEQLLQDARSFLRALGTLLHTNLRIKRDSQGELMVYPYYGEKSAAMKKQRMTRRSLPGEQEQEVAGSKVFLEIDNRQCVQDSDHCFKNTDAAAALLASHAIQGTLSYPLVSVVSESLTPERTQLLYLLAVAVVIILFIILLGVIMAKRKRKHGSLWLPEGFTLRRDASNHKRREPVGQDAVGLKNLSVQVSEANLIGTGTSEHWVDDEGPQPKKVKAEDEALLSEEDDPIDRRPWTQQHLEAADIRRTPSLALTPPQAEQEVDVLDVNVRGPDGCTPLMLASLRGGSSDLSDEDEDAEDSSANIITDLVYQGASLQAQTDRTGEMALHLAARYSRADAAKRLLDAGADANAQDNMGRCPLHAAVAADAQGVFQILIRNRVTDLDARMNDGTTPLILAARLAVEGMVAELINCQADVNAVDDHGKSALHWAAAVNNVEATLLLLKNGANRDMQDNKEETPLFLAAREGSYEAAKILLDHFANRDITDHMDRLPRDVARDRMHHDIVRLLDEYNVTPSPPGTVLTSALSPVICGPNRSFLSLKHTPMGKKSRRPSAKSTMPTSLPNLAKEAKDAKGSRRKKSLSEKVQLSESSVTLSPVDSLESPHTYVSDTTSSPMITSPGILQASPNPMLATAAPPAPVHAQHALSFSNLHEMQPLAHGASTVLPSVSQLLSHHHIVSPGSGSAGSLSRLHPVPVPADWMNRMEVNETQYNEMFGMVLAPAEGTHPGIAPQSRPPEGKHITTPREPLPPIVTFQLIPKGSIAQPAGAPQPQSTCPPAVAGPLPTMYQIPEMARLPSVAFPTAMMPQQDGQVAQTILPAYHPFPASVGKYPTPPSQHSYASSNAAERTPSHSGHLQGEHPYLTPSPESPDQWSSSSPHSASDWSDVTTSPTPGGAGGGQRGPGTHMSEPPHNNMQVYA

| hN1 (IC50, nM), Jag2-induced Notch1-Gal4 luciferase reporter [1] [nM] | hN2, inhibition of Luc activity at [166 nM] Mab [2] [%] | Binder |
| --- | --- | --- |
| 15 | < 10 | WC-133 (antibody, human IgG1, lambda) heavy: [about 100 residues not spelt out][about 120 residues not spelt out][human IgG1 Fc not spelt out] light: SYELTQPPSASGTPGQRVTISCSGSNSNIGSNTLNWYQQLPGTAPKLLIYSNNQRPSWVPDRFSGSKSGTSASLAISGLQSEDEADYYCAAWDDSLNGLIFGGGTKLTVLQPKANPTVTLFPPSSEELQANKATLVCLISDFYPGAVTVAWKADGSPVKAGVETTKPSKQSNNKYAASSYLSLTPEQWKSHRSYSCQVTHEGSTVEKTVAPTECS |
| 13 | < 10 | S3-094 (antibody, human IgG1, lambda) heavy: EVQLVQSGAEVKKPGASVKVSCKASGYNFTGYYMHWVRQAPGQGLEWMGWINPNSGGTNYAQKFQGRVTMTRDTSISTAYMELSRLRSDDTAVYYCATDSFDYWGRGTMVTVSSASTKGPSVFPLAPSSKSTSGGTAALGCLVKDYFPEPVTVSWNSGALTSGVHTFPAVLQSSGLYSLSSVVTVPSSSLGTQTYICNVNHKPSNTKVDKRV[human IgG1 Fc not spelt out] light: QSVLTQPPSASGTPGQRVTISCSGGSSNIGSNTVTWYQQLPGKAPKLLIYISDQRPSGVPDRFSGSKSGTSASLAIRGLQSEDEADYYCAAWDDSLNGAVFGTGTKVTVLQPKANPTVTLFPPSSEELQANKATLVCLISDFYPGAVTVAWKADGSPVKAGVETTKPSKQSNNKYAASSYLSLTPEQWKSHRSYSCQVTHEGSTVEKTVAPTECS |
| 21 | < 20 | WC-173 (antibody, human IgG1, lambda) heavy: EVQLVQSGAEVKKPGASVKVSCKASGYNFTGYYMHWVRQAPGQGLEWMGWINPNSGGTNYAQKFQGRVTMTRDTSISTAYMELSRLRSDDTAVYYCATDSFDYWGQGTTVTVSSASTKGPSVFPLAPSSKSTSGGTAALGCLVKDYFPEPVTVSWNSGALTSGVHTFPAVLQSSGLYSLSSVVTVPSSSLGTQTYICNVNHKPSNTKVDKRV[human IgG1 Fc not spelt out] light: QPVLTQPPSASWTPGQRVTISCSGSSSNIGSNTVHWYRQFPGTAPQLLIYSNNQRPSGVPDRFSGSKSGTSASLAIRGLQSEDEADYYCAAWDDSLNGVVFGGGIKLTVLQPKANPTVTLFPPSSEELQANKATLVCLISDFYPGAVTVAWKADGSPVKAGVETTKPSKQSNNKYAASSYLSLTPEQWKSHRSYSCQVTHEGSTVEKTVAPTECS |

Reference: patent US20110286916A1
